These results are taken from patent US11618753B2 (priority 2018, dated 2023).

The test system of this test is MLKL phosphorylation, HT29-L23 human colorectal adenocarcinoma cells. The experiment in a line: cells. The note with it: read-out: pMLKL HCS Cell Assay (IC50, uM).
For orientation: IC50 means the midpoint of a concentration-inhibition curve. Regarding `COc1ncc(-c2cc(C(F)(F)F)c3c(N)ncnn23)cc1C(=O)N[C@@H]1CN(C(=O)C(C)(F)C(F)(F)F)C[C@@H]1F` (stereo partly drawn) [Example 1229, 5-[4-amino-5-(trifluoromethyl)pyrrolo[2,1-f][1,2,4]triazin-7-yl]-N-[(3R,4S)-4-fluoro-1-(2,3,3,3-tetrafluoro-2-methylpropanoyl)pyrrolidin-3-yl]-2-methoxypyridine-3-carboxamide], the IC50 was determined as 0.0013 µM.
In the case of `[2H]C([2H])([2H])Oc1ncc(-c2cc(C(F)(F)F)c3c(N)ncnn23)cc1C(=O)NC1CN(C(=O)C2CCC(F)(F)C2)C[C@@H]1F` (single isomer, unassigned) [Example 45-1], the IC50 stood at 0.011 µM.
As for `CCc1ccc(-c2cc(C(F)(F)F)c3c(N)ncnn23)c(F)c1C(=O)N[C@@H]1CN(C(=O)CC(C)C)C[C@@H]1F` [Example 738, 3-[4-amino-5-(trifluoromethyl)pyrrolo[2,1-f][1,2,4]triazin-7-yl]-6-ethyl-2-fluoro-N-[(3R,4S)-4-fluoro-1-(3-methylbutanoyl)pyrrolidin-3-yl]benzamide], the figure is 0.099 µM; as for `CCC(O)(C(=O)N1C[C@H](F)[C@H](NC(=O)c2cc(-c3cc(C(F)(F)F)c4c(N)ncnn34)c(F)cc2OC)C1)C(F)(F)F` (stereo partly drawn) [Example 877, 5-[4-amino-5-(trifluoromethyl)pyrrolo[2,1-f][1,2,4]triazin-7-yl]-4-fluoro-N-[(3R,4S)-4-fluoro-1-[2-hydroxy-2-(trifluoromethyl)butanoyl]pyrrolidin-3-yl]-2-methoxybenzamide], 0.0039 µM; as for `COc1ncc(-c2cc(CN3CCS(=O)(=O)CC3)c3c(N)ncnn23)cc1C(=O)N[C@@H]1CN(C(=O)C2CC(F)(F)C2)C[C@@H]1F` [Example 499, 5-{4-amino-5-[(1,1-dioxo-thiomorpholin-4-yl)methyl]pyrrolo[2,1-f][1,2,4]triazin-7-yl}-N-[(3R,4S)-1-(3,3-difluorocyclobutanecarbonyl)-4-fluoropyrrolidin-3-yl]-2-methoxypyridine-3-carboxamide], 0.011 µM.
Then `COc1cc(C(=O)N[C@@H]2CN(C(=O)C(C)(C)O)C[C@@H]2F)cc(-c2cc(C(F)(F)F)c3c(N)ncnn23)c1` [Example 588, 3-[4-amino-5-(trifluoromethyl)pyrrolo[2,1-f][1,2,4]triazin-7-yl]-N-[(3R,4S)-4-fluoro-1-(2-hydroxy-2-methylpropanoyl)pyrrolidin-3-yl]-5-methoxybenzamide], with 0.157 µM.
With `Cc1ccc(-c2cc(C(F)(F)F)c3c(N)ncnn23)c(F)c1C(=O)N[C@@H]1CN(C(=O)c2ccccc2F)C[C@@H]1F` [Example 756, 3-[4-amino-5-(trifluoromethyl)pyrrolo[2,1-f][1,2,4]triazin-7-yl]-2-fluoro-N-[(3R,4S)-4-fluoro-1-(2-fluorobenzoyl)pyrrolidin-3-yl]-6-methylbenzamide], the IC50 was found to be 0.0039 µM.
As for `COc1ncc(-c2cc(C(F)(F)F)c3c(N)ncnn23)cc1C(=O)N[C@@H]1CN(S(=O)(=O)C(C)C(F)(F)F)C[C@@H]1F` (stereo partly drawn) [Example 1466, 5-[4-amino-5-(trifluoromethyl)pyrrolo[2,1-f][1,2,4]triazin-7-yl]-N-[(3R,4S)-4-fluoro-1-(1,1,1-trifluoropropane-2-sulfonyl)pyrrolidin-3-yl]-2-methoxypyridine-3-carboxamide], the figure is 0.0033 µM.
With `Nc1ncnn2c(-c3cc(C(=O)N[C@@H]4CN(C(=O)C5CC(F)(F)C5)C[C@@H]4F)c(Cl)cc3F)cc(CN3CC(F)(F)C3)c12` [Example 1309, 5-{4-amino-5-[(3,3-difluoroazetidin-1-yl)methyl]pyrrolo[2,1-f][1,2,4]-triazin-7-yl}-2-chloro-N-[(3R,4S)-1-(3,3-difluorocyclobutanecarbonyl)-4-fluoropyrrolidin-3-yl]-4-fluoro-benzamide], the IC50 amounted to 0.00062 µM.
